Laboratory results published in the supplement of paper PMC3334620.
Over roughly 33,000 sequences, “E-score (-0.5 to 0.5)” has its median near -0.035; the highest 2% begin near 0.34. The list shows a part of the results.

Each sequence was assayed against T1, Mot3 (UniProt P54785) (assay: PBM E-score (8-mer binding enrichment) (E-score (-0.5 to 0.5)); higher = stronger / more preferred TF binding; most listed sequences are background and not binding sites). Details: protein concentration: 200 nM; construct: GST-full length.
T1 sequence: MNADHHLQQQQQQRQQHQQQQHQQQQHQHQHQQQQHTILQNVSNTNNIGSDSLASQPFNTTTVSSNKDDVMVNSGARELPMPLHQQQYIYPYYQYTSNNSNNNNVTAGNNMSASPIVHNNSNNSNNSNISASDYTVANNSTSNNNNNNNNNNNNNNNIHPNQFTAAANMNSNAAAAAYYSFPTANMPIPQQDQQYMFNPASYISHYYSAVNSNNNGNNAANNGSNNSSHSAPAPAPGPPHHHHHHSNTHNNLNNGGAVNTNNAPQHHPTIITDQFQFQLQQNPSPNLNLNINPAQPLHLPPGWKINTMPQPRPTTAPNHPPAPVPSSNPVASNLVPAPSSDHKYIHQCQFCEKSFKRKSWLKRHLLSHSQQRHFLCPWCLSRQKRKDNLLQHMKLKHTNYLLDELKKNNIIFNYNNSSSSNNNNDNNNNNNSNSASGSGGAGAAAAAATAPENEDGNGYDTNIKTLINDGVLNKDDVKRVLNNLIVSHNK
Outline: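 For each ungapped eight-base word taken together with its reverse complement, the Universal PBM Analysis Suite assigned an E-score. Binding data came from GST-tagged yeast transcription factors, applied at about 100-200 nM, on universal all-10-mer Agilent arrays made double-stranded by primer extension. Fluorescent anti-GST marked bound protein, and scans were normalised with masliner.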

Sequence | PBM E-score
AGCTCTGA | -0.316
AATAGCAT | 0.0627
GAAGTTCA | -0.0596
AACCGCGC | -0.125
AGGGCCGC | -0.2
ACTTTCGC | -0.0295
AACCAGGT | -0.172
AGGTGGAG | -0.039
CGATGCGA | -0.192
CTAGCTAG | -0.146
GAAACAAA | 0.173
ATCCCGGA | -0.199
CAACCAGC | 0.00855
AAATGGAT | 0.12
ACAGGGGG | -0.191
GCGCCAGC | 0.128
CGAGTATC | -0.191
CCGGTTGA | -0.156
ATCGTGGC | 0.0571
TGCAAAAA | 0.106
GGGGATTA | 0.0141
ATTTCTCG | 0.18
GTACGGAC | -0.157
GGCTGCCC | -0.361
GAATTACC | 0.0992

Sequence | PBM E-score
ACGAGCGG | -0.186
AGGAGCGC | -0.141
GGCTGATA | -0.23
AATATGTG | 0.228
GTGTGGGA | -0.0409
CATTCATC | -0.057
CGAAAACG | -0.12
TCAGCGGA | -0.276
CGTCAAAG | 0.101
CCTTATAA | 0.146
CATTTACC | 0.158
CGTTTCAG | 0.0418
AGCATGAG | -0.0411
ACGTACCC | 0.0197
CACAGTCA | 0.0815
AGGATTAT | 0.046
AGCATACC | -0.171
CCAAAAGC | -0.184
CAGGCATC | 0.402
ACAGTACC | -0.0195
ATCGAACC | -0.089
ACAACTCG | 0.115
CGGATGGA | -0.209
AATGATCT | -0.113
GCCTTATA | 0.246

Sequence | PBM E-score
AAAACCTT | -0.0457
GACAAGAA | -0.041
CCCAACTC | -0.0709
CAAGGTTC | -0.0388
CATGGGCC | -0.088
GACGTCGC | -0.069
ATTACAGC | 0.127
ACGCATTG | 0.0857
AACGCGAT | 0.104
ATTAGAAT | 0.0758
CGCCAGAG | -0.382
CTGCAAAA | 0.121
GATCGTAA | -0.103
CAGAACCA | -0.0272
CCGAGATC | -0.299
AAAAGATG | 0.11
TATTAAAA | 0.21
GAAGACTC | 0.0295
GGGTGGAA | -0.28
GGTCGTAC | -0.144
CATTAGGA | -0.00514
AGGTAGAT | -0.00737
CCCTTCCG | -0.252
ATATATCC | 0.0159
ACCGCGGT | -0.185

Sequence | PBM E-score
GGAAGTAC | -0.139
TACCAGTA | 0.0471
CTATCCTC | -0.164
ATATCGGC | -0.196
ACCGACGA | -0.0177
GTCCCGAC | -0.135
GTGCTGAA | -0.0819
CATCGTCA | 0.0766
GTGGGCCA | -0.31
GTTCAGCA | 0.0297
GTCTGTCA | -0.0398
CCCTCTGA | -0.293
AGGAAAAG | 0.305
AATGGATA | -0.0328
ACGCCCGC | -0.235
AACTTTCG | -0.0569
GATGACAC | 0.283
CAACGATG | -0.034
ATCGAGGC | -0.117
ACAGCTCT | -0.141
CCCTTTAC | 0.15
AAAAAGTA | 0.0649
ACTAGAGT | 0.0248
AATCTGCG | -0.181
AACAGTAA | -0.0414

Sequence | PBM E-score
CTCTAGAG | -0.177
ACTGTTAA | 0.147
ACTGCGAC | -0.123
TATATTAA | 0.211
ACACGTGA | 0.273
ACCGCTAG | -0.124
AAACGAGG | -0.11
TAACTCGA | 0.113
CAGTAGCG | -0.189
AACTTGTC | 0.0707
CTAGGTAA | 0.182
CGTCAGGA | 0.102
GACTGAAC | -0.215
GATGTACA | 0.259
GGTCCAAC | -0.303
AATCGCGG | -0.2
ACCTGGTG | 0.0315
AAAGGAGT | 0.0661
ACAGAATC | -0.108
AGATGTAT | 0.133
CACCTGCC | -0.0248
AAGTCCTC | -0.234
CGATTATA | 0.0112
CAAGCTCA | -0.115
AGCGGTGG | -0.249

Sequence | PBM E-score
AATCCTGT | 0.159
CCCCCGAC | -0.325
CCTCACCG | -0.2
GTGTTCAA | 0.225
GAGCCAGC | -0.0678
ACCGAGGT | -0.167
CGAATAAC | 0.0678
ACTTTAAA | 0.0778
AGACGTGG | -0.135
AGTGCTCA | -0.101
CTCTCTTA | 0.0471
CGAAGTTA | -0.0312
AAAGCGGC | -0.0864
ACTTTTCC | 0.0601
AGTGTTCC | -0.00943
GGGGACCA | -0.164
CCATGCAC | -0.157
GGTATACC | -0.0472
CACCGAGC | -0.125
TATGAGCA | -0.0961
TGTTGCAA | 0.22
ATAGAGAG | -0.0812
GAATTCGA | -0.112
CTTATGAC | 0.034
AGCATGTA | 0.354

Sequence | PBM E-score
GCTGAGAA | -0.124
CGTTATTC | 0.115
GTAACAGA | 0.183
CGTTACAA | 0.211
CACTTAGA | 0.118
GGAACGCA | 0.128
GGACTCAA | -0.243
ATAACGAG | 0.201
AACCCAAA | 0.191
ACTAGCTG | -0.0836
CAGTGACA | 0.0778
ATATAAAT | 0.136
GAGCGGCA | -0.222
CAAGCCCC | -0.0516
AGTTAGCG | -0.0192
CCCGCGAC | -0.27
AGACCGTA | -0.147
TCGCTTAA | 0.105
TTGAACAA | 0.155
AAAGTGTA | 0.199
ACCTAACG | 0.111
ATCTAAGG | -0.138
